Assay [1] has as its target T1, ORC2 C-terminally tagged with Flag/HA (human), Q13416.
T1 chain: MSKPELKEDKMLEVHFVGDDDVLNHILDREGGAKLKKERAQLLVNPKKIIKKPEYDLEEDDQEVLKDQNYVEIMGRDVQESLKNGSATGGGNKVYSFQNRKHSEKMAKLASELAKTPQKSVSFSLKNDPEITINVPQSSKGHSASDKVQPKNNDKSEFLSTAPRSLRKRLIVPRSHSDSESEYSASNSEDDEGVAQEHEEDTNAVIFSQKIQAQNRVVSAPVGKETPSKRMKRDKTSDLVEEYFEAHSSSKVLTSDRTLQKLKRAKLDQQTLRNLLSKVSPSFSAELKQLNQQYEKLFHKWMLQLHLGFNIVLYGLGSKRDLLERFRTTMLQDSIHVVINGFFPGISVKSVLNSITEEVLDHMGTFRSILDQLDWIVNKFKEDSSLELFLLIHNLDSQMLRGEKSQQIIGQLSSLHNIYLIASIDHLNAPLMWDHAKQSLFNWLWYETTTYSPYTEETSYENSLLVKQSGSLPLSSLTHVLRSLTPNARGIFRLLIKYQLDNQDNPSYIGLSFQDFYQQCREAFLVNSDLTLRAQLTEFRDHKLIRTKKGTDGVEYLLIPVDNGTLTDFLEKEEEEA
Nature of the assay: co-IP; TAP-TAG final eluates (anti-Flag then anti-HA, peptide elution) of Flag/HA-tagged baits from HeLa S3 Dignam nuclear extracts, analysed by western blotting. The note with it: remark: other sources report otherwise. On the technique in general: In western blotting, separated proteins are transferred to a membrane and probed.

A further assay has as its target ORC complex (human) (UniProt Q13415). Nature of the assay: co-IP; transfected cells lysed in TK300 buffer (20 mM Tris-HCl pH 7.9, 300 mM KCl, 5 mM MgCl2, 10% glycerol, 0.5% NP-40); anti-Flag agarose beads, 4 h at 4 °C; western blotting.
The target in assay [2] is T2, Flag-ORC1, ectopic (human) (UniProt Q13415).
T2 sequence: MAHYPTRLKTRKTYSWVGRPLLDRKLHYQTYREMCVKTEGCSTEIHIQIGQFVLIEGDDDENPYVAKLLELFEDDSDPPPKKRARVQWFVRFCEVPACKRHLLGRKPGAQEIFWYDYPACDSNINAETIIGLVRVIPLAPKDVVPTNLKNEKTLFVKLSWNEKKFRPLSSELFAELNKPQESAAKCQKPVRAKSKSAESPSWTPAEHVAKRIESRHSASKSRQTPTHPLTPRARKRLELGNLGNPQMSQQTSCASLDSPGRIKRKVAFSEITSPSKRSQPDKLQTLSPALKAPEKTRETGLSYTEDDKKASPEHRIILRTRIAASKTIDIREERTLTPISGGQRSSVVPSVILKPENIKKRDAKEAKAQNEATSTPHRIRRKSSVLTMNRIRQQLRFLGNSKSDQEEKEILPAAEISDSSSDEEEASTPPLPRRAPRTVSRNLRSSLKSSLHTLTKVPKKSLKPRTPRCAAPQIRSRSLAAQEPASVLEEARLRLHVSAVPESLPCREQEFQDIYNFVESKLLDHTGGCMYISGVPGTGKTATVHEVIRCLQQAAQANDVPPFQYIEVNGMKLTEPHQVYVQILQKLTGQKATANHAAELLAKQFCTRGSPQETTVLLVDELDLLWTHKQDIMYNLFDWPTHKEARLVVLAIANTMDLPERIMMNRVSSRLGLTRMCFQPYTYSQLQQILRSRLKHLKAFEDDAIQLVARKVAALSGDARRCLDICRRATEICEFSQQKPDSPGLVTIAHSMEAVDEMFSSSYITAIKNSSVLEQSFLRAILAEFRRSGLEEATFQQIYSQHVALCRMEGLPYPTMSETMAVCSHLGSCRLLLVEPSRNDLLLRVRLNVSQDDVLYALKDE
The assay is described as above.

In assay [3] the target is T3, Myc-tagged ORC3, wild type (human) (UniProt Q9UBD5).
T3 sequence: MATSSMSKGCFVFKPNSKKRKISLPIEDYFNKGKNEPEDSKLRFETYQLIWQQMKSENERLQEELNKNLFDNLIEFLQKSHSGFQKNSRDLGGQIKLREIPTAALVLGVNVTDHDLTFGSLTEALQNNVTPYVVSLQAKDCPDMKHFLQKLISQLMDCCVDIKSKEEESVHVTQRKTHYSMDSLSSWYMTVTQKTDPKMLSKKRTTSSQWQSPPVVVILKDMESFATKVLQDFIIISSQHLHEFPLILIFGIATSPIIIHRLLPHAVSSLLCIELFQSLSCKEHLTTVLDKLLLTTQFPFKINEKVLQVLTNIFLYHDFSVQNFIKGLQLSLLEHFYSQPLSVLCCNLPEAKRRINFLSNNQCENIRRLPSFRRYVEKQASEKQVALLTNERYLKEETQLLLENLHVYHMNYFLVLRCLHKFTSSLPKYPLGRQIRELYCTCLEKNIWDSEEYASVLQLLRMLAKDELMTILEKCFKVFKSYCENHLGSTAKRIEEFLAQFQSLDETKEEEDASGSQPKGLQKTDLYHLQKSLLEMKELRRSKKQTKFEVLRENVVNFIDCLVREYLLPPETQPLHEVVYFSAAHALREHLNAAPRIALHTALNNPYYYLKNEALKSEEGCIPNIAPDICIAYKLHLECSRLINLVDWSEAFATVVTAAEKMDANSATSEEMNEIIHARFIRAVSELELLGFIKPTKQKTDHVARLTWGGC
The description is as above.

In assay [4] the target is T4, Myc-tagged ORC5, wild type (human) (UniProt O43913).
T4 sequence: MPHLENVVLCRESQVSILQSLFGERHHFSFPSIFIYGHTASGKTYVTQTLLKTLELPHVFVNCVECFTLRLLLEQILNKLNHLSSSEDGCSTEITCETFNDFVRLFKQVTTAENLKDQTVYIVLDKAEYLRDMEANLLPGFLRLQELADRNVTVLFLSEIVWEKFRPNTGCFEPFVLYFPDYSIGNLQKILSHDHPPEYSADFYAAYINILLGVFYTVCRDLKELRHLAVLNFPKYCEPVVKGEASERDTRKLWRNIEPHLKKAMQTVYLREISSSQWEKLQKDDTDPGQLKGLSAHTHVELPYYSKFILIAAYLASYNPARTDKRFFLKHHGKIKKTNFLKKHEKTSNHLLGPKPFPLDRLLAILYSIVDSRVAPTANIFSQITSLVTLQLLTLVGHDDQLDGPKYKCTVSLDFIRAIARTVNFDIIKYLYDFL
The description is as above.

For 3 molecules, binding results are on record in paper PMC6547688.

Changes are numbered by the printed parent chain. These are yes or no findings as the source states them, for the method shown. Binding seen in cells or lysates may run through a third protein. Some binding calls cover weakened binding; strength is not graded here. For part of these data: Tags and fused reporters may be left off the sequences shown.

B1: OBI1 (ORC-ubiquitin-ligase-1), endogenous, Q5W0B1 1-726 (enzyme)
chain: MAQTVQNVTLSLTLPITCHICLGKVRQPVICINNHVFCSICIDLWLKNNSQCPACRVPITPENPCKEIIGGTSESEPMLSHTVRKHLRKTRLELLHKEYEDEIDCLQKEVEELKSKNLSLESQIKTILDPLTLVQGNQNEDKHLVTDNPSKINPETVAEWKKKLRTANEIYEKVKDDVDKLKEANKKLKLENGGLVRENLRLKAEVDNRSPQKFGRFAVAALQSKVEQYERETNRLKKALERSDKYIEELESQVAQLKNSSEEKEAMNSICQTALSADGKGSKGSEEDVVSKNQGDSARKQPGSSTSSSSHLAKPSSSRLCDTSSARQESTSKADLNCSKNKDLYQEQVEVMLDVTDTSMDTYLEREWGNKPSDCVPYKDEELYDLPAPCTPLSLSCLQLSTPENRESSVVQAGGSKKHSNHLRKLVFDDFCDSSNVSNKDSSEDDISRSENEKKSECFSSPKTGFWDCCSTSYAQNLDFESSEGNTIANSVGEISSKLSEKSGLCLSKRLNSIRSFEMNRTRTSSEASMDAAYLDKISELDSMMSESDNSKSPCNNGFKSLDLDGLSKSSQGSEFLEEPDKLEEKTELNLSKGSLTNDQLENGSEWKPTSFFLLSPSDQEMNEDFSLHSSSCPVTNEIKPPSCLFQTEFSQGILLSSSHRLFEDQRFGSSLFKMSSEMHSLHNHLQSPWSTSFVPEKRNKNVNQSTKRKIQSSLSSASPSKATKS
On to B1, for which, in assay [1], the binding entry was “binds”.

B2: OBI1 Cys38Ser, catalytically inactive mutant (enzyme, UniProt Q5W0B1 1-726)
chain: B1 chain with C38S
As for B2, in the assay with ORC complex (human), the binding result is “binds”.

B3: ectopic OBI1, wild type (enzyme, UniProt Q5W0B1 1-726)
chain: B1 chain
For B3, the binding result (in assay [2]; in assay [3]; in assay [4]; with ORC complex (human)) was “binds” in each case.
